Data reported in article PMC6451091.
This is one part of the list. For part of these data: At the low end of the ranking the order means little. For part of these data: Measured with an extract: partners may take part in the binding.

Tests used:
Conditions in all cases: 20 mM HEPES pH 7.9, 100 mM NaCl, 1 mM DTT, 0.2 mg/mL BSA, 0.02% Triton X-100, 2% milk, 0.4 mg/mL salmon testes DNA; 1 h; temperature not stated; high values mean tight binding; double strand, one strand shown; sequences stand for … in GCCTAGCAC…GTGCTAGGTCTTGATTCGCTTGACGCTGCTG
PU.1 (IVT) = PU.1 (IVT) (UniProt P17947); test: protein-binding microarray (PBM)
[1] = target: T1, FLI1 (endogenous, THP-1 nuclear extract) (UniProt Q01543); test: nuclear extract protein-binding microarray (nextPBM)
T1 sequence: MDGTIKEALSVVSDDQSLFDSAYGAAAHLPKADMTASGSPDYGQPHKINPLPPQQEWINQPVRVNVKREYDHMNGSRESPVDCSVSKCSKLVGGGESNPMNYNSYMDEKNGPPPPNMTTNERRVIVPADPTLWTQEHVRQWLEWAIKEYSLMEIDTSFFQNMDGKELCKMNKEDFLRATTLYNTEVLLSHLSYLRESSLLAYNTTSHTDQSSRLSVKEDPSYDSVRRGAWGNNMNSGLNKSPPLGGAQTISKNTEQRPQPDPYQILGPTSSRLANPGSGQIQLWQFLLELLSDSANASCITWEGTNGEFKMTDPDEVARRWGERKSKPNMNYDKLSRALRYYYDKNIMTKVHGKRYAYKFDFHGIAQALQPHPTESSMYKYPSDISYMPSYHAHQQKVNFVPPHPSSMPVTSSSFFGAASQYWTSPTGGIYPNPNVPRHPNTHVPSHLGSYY

[2] = test system: PU.1 (endogenous, THP-1 nuclear extract) + IRF8 (endogenous, THP-1 nuclear extract); test: as above

| Sequence | binding signal (PU.1 (IVT)) [z-score] | binding signal [1] [z-score] | binding signal [2] [z-score] |
| --- | --- | --- | --- |
| TGGCAGAGGACGTGAAACTA | -0.354 | 0.336 | 8.24 |
| TGAAAGGAGAAGTGAAACCT | 3.8 | 2.2 | 49.3 |
| AAAAAAAGGAAATAAAAGTA | 3.48 | 1.74 | 0.793 |
| TGGCAGAGGAAGTGTAACTA | 2.88 | 2.25 | 0.875 |
| TTGAGCAAGAAGTGAAAGTA | 0.824 | -0.213 | 20.6 |
| AAAAACAGGAAGAGAAACTG | 4.89 | 3.02 | 8.7 |
| TTGGTCAGGAAGTGAAACTG | 1.38 | 3.29 | 44.6 |
| TAAAAGGAGAAGTGAAACTC | 5.6 | 3.73 | 62.4 |
| GAAATAAGGAACTGAAACTG | 4.78 | 2.6 | 45 |
| AAAAAAAGGTAATGAAAGTA | 0.213 | 0.0278 | 3.35 |
| AAATACAGGAAGTGAAACTT | 6.55 | 5.2 | 60.2 |
| GAAAGGAGGAAGTGAAACTG | 6.19 | 3.67 | 78.8 |
| TGAACAAGGAAGTGAAACTT | 3.55 | 2.95 | 45 |
| CTGCCAGGGAAGTGAAAACA | 1.23 | 1.07 | 0.84 |
| TGTCAGAGGAAGTGAAACTA | 2.98 | 3.1 | 66.1 |
| GTATTCAGGAACTGAAACTC | 1.7 | 1.61 | 23.1 |
| CTGCCAGGGAAGTGAAAGCC | 0.927 | 0.939 | 1.95 |
| TAATAGAGGAAGTGAAACTA | 6.28 | 3.95 | 84.9 |
| AATAAAAGGAAATGAAAGTA | 1.46 | 2.47 | 9.03 |
| GATAAGAGGAACTGAAATCT | 4.58 | 1.43 | 0.149 |
| ATCTTAGGGAACTGAAACCC | 1.75 | 0.741 | 8.73 |

| Sequence | binding signal (PU.1 (IVT)) [z-score] | binding signal [1] [z-score] | binding signal [2] [z-score] |
| --- | --- | --- | --- |
| TGAAAGAGGAACTGAAAATG | 5.75 | 3.03 | 4.79 |
| AAAAATAGGAAATGAAAGTA | 3 | 2.34 | 16.5 |
| TGGCAAAGGAAGTGAAACTA | 1.48 | 2.68 | 56.6 |
| TGAGAAGAGAAGTGAAACCT | 1.01 | 0.00363 | 19.9 |
| AAAAAGGGGAAGAGAAACTC | 5.35 | 2.55 | 9.8 |
| GAAGAGAGGAAGTGAAACTA | 4.63 | 3.9 | 65.3 |
| AACATGAGGAACTGAAACTG | 3 | 1.55 | 32 |
| GATAAGTGGAACTGAAAGCT | 1.15 | 0.036 | 2.8 |
| GATAAGAGGAAATGAAAGCT | 3.37 | 2.53 | 2.62 |
| GATAAGAGAAACTGAAAGCT | -0.311 | 0.0383 | 7.84 |
| TGTAACAGGAAGTGAAACCA | 4.74 | 5.48 | 75.9 |
| CTGCCAGTGAAGTGAAAGCA | -0.423 | -0.326 | 3.62 |
| CAAAATGGGAAGTGAAACTT | 5.62 | 3.02 | 61 |
| TGGCAGAGGAAGTTAAACTA | 3.71 | 2.55 | -0.349 |
| TTCAGGGGGAAGTGAAAGTT | 3.64 | 2.3 | 16.8 |
| GATAATAGGAACTGAAAGCT | 2.28 | 0.871 | 2.59 |
| TGGTAGAGGAAGTGAAACTA | 4.29 | 3.77 | 70.4 |
| AAAAGTAGGAAGTGAAACTA | 5.32 | 4.25 | 67.8 |
| TGAGAGGAGAGGTGAAACCT | -0.481 | -0.712 | 3.73 |
| TAAAGGAGGAACTGAAGCCA | 3.31 | 1.05 | 0.544 |
| AAAAGGAGGAAGCGAAACTC | 3.6 | 2.65 | 62 |
